Results are given in words; binding and its absence hold for the method and conditions named. For some assays here: Binding seen in cells or lysates may run through a third protein. Some results given as binding are weak or reduced against the parent protein; the word gives no strength. For some assays here: Tags and fused reporters may be left off the sequences shown.

Protein sequences, listed by entry. Tags and fused reporters are not part of them. Residues count along the entry.
UniProt Q9P0T7, residues 21-183: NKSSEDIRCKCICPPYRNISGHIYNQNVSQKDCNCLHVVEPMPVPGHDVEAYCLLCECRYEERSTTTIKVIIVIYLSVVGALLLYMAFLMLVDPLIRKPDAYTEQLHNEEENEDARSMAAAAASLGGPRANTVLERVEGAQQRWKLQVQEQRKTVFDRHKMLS
UniProt P51793: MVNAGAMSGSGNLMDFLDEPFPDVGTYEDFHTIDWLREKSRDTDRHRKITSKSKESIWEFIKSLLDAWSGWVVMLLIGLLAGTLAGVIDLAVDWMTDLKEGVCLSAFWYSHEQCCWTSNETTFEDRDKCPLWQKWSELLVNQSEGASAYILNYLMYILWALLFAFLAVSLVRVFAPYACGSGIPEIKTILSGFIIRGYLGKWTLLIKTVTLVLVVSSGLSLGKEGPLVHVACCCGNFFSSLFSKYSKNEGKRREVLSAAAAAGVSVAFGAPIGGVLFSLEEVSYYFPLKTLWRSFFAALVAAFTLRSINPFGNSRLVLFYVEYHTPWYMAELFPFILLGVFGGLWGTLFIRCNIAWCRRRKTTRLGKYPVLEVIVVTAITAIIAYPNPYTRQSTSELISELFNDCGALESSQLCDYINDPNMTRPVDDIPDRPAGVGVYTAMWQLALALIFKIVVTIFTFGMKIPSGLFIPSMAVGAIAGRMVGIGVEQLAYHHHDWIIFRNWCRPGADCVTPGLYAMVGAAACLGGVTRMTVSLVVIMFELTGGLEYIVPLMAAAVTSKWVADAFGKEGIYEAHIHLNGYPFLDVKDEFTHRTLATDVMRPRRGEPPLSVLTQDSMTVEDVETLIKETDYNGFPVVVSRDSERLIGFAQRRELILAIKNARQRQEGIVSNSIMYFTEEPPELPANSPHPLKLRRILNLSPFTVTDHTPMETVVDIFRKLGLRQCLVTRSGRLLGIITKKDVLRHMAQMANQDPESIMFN

One assay has as its target HA-tagged TMEM9 (human) (UniProt Q9P0T7). Nature of the assay: co-IP; HEK293 cells transfected with tagged proteins; 0.5% DDM, 25 mM HEPES pH 7.4, 150 mM NaCl; anti-HA or anti-Flag magnetic beads; immunoblot.
For a further assay, the target named is T1, HA-tagged TMEM9B (human) (UniProt Q9NQ34).
T1 sequence: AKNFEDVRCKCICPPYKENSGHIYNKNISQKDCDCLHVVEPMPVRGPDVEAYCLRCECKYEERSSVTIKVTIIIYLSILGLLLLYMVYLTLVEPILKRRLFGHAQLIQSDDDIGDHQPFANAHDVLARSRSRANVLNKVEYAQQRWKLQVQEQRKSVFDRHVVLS
Described as above.

In assay [1] the target is T2, CLCN3 (human (endogenous in HEK293)) (UniProt P51790).
T2 sequence: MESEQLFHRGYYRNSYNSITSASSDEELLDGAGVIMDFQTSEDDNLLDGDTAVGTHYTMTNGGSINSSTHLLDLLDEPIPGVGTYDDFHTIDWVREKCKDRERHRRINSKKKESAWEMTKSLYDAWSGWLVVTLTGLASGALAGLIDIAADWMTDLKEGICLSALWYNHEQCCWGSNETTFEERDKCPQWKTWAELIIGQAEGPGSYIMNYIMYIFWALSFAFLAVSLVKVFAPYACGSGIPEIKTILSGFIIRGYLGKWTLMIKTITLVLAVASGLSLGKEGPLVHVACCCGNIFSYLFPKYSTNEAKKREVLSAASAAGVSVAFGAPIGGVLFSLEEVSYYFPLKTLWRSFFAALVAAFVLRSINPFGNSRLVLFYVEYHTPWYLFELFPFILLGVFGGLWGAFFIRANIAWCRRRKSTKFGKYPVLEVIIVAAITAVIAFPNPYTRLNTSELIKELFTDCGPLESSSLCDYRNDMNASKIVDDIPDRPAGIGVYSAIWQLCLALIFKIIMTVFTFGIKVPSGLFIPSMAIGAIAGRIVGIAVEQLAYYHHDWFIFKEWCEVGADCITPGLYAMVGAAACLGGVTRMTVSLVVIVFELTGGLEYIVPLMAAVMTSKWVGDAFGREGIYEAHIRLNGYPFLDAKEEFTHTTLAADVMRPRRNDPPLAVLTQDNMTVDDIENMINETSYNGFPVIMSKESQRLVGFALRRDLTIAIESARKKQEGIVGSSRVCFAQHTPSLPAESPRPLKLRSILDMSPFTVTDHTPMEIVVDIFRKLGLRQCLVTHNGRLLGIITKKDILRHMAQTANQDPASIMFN
Description: native gel or EMSA; BN-MS: 0.5% DDM extract of purified early endosomes (HEK293) on a 4-16% NativePAGE gel, 48 slices, DIA mass spectrometry; co-fractionation profiles. Background: In EMSA bound probe runs differently from free probe, usually more slowly.

The target in assay [2] is CLCN4 (human (endogenous in HEK293)) (UniProt P51793). The description is as above.
For assay [3], the target named is T3, CLCN5 (human (endogenous in HEK293)) (UniProt P51795).
T3 sequence: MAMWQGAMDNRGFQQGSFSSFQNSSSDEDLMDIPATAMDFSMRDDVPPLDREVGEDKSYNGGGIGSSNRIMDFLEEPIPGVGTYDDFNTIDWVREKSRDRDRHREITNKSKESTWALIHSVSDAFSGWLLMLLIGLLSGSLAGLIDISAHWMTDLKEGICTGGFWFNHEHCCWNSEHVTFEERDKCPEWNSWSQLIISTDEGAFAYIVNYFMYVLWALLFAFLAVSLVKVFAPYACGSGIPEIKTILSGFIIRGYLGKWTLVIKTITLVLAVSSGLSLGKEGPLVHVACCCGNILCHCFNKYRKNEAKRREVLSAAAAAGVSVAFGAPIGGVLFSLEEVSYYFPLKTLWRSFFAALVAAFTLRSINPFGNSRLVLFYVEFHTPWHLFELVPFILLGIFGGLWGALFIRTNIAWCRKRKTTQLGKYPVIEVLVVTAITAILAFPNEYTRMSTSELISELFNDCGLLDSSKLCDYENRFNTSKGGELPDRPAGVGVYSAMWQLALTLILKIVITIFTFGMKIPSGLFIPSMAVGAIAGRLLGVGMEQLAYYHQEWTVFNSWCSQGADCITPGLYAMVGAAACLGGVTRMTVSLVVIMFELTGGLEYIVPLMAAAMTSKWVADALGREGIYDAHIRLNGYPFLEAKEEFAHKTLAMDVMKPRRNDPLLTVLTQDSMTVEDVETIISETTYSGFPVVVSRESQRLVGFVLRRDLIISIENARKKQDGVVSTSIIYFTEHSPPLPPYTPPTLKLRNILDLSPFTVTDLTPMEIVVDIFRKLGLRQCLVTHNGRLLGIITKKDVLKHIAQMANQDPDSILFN
The assay is described as above.

Assay [4] concerns the target T2, CLCN3 (human (endogenous in HEK293)). Description: cross-linking; XL-MS: intact early endosomes (Endo-IP, HEK293 cells expressing Flag-EEA1, eluted with 3xFlag peptide, no detergent) cross-linked with 1 mM DSSO in KPBS at room temperature for 40 min; XlinkX, 5% FDR.
The next assay has as its target T4, Flag–CLCN3 (human) (UniProt P51790).
T4 sequence: T2 sequence
Nature of the assay: co-IP; HEK293 cells transfected with tagged proteins; 0.5% DDM, 25 mM HEPES pH 7.4, 150 mM NaCl; anti-HA or anti-Flag magnetic beads; immunoblot. A general note: In western blotting, separated proteins are transferred to a membrane and probed.

The target in the next assay is T5, Flag–CLCN5 (human) (UniProt P51795).
T5 sequence: T3 sequence
The description is as above.

B1: Flag–CLCN5 (protein, UniProt P51795 1-816)
chain: T3 sequence
In the case of B1, the binding entry in the assay with HA-tagged TMEM9 (human) and with HA-tagged TMEM9B (human) was “binds” each time.

B2: TMEM9B (protein, UniProt Q9NQ34 34-198)
chain: T1 sequence
For B2, the binding entry in assay [1], in assay [2], in assay [3] and in assay [4] was “binds” throughout.

B3: HA-tagged TMEM9B (protein, UniProt Q9NQ34 34-198)
chain: T1 sequence
As to B3, the binding entry in the assay with Flag–CLCN3 (human) and with Flag–CLCN5 (human) was “binds” each time.

The values above are taken from publication PMC12222028.
